Assay results taken from article PMC4336329 (PLoS ONE, 2015).
The campaign covered roughly 310,000 compounds. About 14,000 (4.5%) showed an effect of 50% or more. Effects have a minus sign here. The list shows a part of the results.

The compounds below were run against human ether-à-go-go-related gene (hERG) potassium channel (human, UniProt Q12809) (assay: primary screen, population patch clamp on CHO cells stably expressing hERG).
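Further: peak tail current of the secondary pulse compared with the same well before compound.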

Sequence of human ether-à-go-go-related gene (hERG) potassium channel (Q12809 whole entry, looked up): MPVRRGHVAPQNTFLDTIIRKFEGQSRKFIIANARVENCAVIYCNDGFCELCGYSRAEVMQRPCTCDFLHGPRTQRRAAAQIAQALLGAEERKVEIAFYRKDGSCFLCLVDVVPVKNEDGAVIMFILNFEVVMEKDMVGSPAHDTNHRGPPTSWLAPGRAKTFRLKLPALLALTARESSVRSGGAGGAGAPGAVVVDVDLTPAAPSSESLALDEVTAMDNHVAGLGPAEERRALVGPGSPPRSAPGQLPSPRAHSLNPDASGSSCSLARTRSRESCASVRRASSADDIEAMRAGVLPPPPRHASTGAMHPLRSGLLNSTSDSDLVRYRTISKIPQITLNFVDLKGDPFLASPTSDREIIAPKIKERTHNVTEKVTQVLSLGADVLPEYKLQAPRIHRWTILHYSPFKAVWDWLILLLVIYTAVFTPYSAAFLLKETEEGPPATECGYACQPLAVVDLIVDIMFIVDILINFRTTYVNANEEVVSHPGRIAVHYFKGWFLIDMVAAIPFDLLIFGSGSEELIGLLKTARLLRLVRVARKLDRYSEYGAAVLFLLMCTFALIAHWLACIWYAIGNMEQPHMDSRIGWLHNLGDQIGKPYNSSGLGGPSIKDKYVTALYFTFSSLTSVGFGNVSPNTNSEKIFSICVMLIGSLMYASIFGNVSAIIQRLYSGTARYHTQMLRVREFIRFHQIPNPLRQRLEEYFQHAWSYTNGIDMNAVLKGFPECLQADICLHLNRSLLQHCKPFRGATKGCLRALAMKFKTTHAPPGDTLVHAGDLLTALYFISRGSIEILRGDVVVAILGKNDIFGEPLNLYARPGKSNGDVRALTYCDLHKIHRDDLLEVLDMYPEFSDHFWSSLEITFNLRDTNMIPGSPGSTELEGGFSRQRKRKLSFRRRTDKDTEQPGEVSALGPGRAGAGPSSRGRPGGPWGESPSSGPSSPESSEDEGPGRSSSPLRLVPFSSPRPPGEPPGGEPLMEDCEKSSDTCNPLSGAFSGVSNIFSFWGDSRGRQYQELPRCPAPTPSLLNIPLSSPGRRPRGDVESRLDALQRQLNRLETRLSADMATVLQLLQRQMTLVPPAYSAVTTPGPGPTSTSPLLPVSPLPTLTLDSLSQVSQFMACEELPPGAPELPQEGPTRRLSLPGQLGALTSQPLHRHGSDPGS

Q: How did the “hERG current change (%, negative = inhibition) at 10uM” value turn out when `Cc1cccc(-c2nc3c(c(SCC(=O)N(C)C)n2)CCCC3)c1` was run?
A: -21.5%

Q: For `NC(=O)c1nsc(C(=O)N(CC(=O)NCc2ccc3c(c2)OCO3)C2CCCCC2)c1N`, which “hERG current change (%, negative = inhibition) at 10uM” value is on record?
A: -14.7%

Q: With `CCOC(=O)N1CCN(C(=O)c2ccc(CNS(=O)(=O)c3ccc(NC(C)=O)cc3)cc2)CC1` as the compound, how does the “hERG current change (%, negative = inhibition) at 10uM” value read?
A: 20.1%

Q: `COc1ccccc1CNC(=O)CS(=O)Cc1nc(-c2ccccc2C)oc1C` (centres unmarked) was tested. Which “hERG current change (%, negative = inhibition) at 10uM” value did it give?
A: -1.32%

Q: Which “hERG current change (%, negative = inhibition) at 10uM” value does the source give for `O=C(C1CCCN(S(=O)(=O)c2cccs2)C1)N1CCC(N2CCCCC2)CC1` (centres unmarked) here?
A: -61.7%

Q: For `Cc1ccc(NC(=S)NNc2ccc(C(=O)O)cc2[N+](=O)[O-])cc1C`, which “hERG current change (%, negative = inhibition) at 10uM” value is on record?
A: 23.1%

Q: How did the “hERG current change (%, negative = inhibition) at 10uM” value turn out when `CC(C)c1ccc(NC(=O)c2ccc(NC3=NC4CS(=O)(=O)CC4S3)cc2)cc1` (centres unmarked) was run?
A: 5.9%

Q: How did the “hERG current change (%, negative = inhibition) at 10uM” value turn out when `COc1ccccc1C(=O)N/C(=C\c1cn(S(=O)(=O)N(C)C)c2ccccc12)C(=O)N1CCCCC1` was run?
A: 13.5%

Q: For `COc1cc(NC(=O)c2ccc(-c3cccc([N+](=O)[O-])c3)o2)ccc1NC(=O)C(C)C`, which “hERG current change (%, negative = inhibition) at 10uM” value is on record?
A: -5.61%

Q: With `CC(=O)c1ccc(NC(=S)N(CCCN(C)C)Cc2ccccc2)cc1` as the compound, how does the “hERG current change (%, negative = inhibition) at 10uM” value read?
A: -53.3%

Q: Which “hERG current change (%, negative = inhibition) at 10uM” value does the source give for `CCN(CC)S(=O)(=O)c1ccc(C(=O)Nc2ccc(OCC(=O)N3CCOCC3)cc2)cc1` here?
A: 8.3%

Q: Which “hERG current change (%, negative = inhibition) at 10uM” value does the source give for `CNCCCc1[nH]nc(N)c1C#N` here?
A: 4.22%

Q: How did the “hERG current change (%, negative = inhibition) at 10uM” value turn out when `COc1cc(OC)c(C2C(C(=O)Nc3ccccc3)=C(C)Nc3ncnn32)cc1OC` (centres unmarked) was run?
A: -2.97%

Q: With `C[C@H](NC(=O)C1CCC(CNC(=O)[C@@H]2CCCN2C(=O)OC(C)(C)C)CC1)C(=O)O` (some centres unmarked) as the compound, how does the “hERG current change (%, negative = inhibition) at 10uM” value read?
A: 12.4%

Q: Which “hERG current change (%, negative = inhibition) at 10uM” value does the source give for `CC(=O)N[C@H]1C[C@@H]1c1ccccc1` here?
A: -14.2%

Q: With `CCCSC1=C(C#N)C(c2ccc(O)c(OC)c2)CC(=O)N1` (centres unmarked) as the compound, how does the “hERG current change (%, negative = inhibition) at 10uM” value read?
A: -45.1%

Q: How did the “hERG current change (%, negative = inhibition) at 10uM” value turn out when `NC(=O)CSc1nnc(-c2ccccc2F)n1C1CC1` was run?
A: 20.3%

Q: `COC(=O)c1c(NC(=O)Cn2cc([N+](=O)[O-])cn2)sc2c1CCC2` was tested. Which “hERG current change (%, negative = inhibition) at 10uM” value did it give?
A: 11.1%

Q: `CC(O)CNc1cc(N)c([N+](=O)[O-])cc1[N+](=O)[O-]` (centres unmarked) was tested. Which “hERG current change (%, negative = inhibition) at 10uM” value did it give?
A: -8.32%

Q: With `Cc1ccc(C(=O)N2CCN(S(=O)(=O)c3ccccc3)CC2)s1` as the compound, how does the “hERG current change (%, negative = inhibition) at 10uM” value read?
A: -7.38%

Q: Which “hERG current change (%, negative = inhibition) at 10uM” value does the source give for `O=C(CCC(=O)c1cccs1)NCC(c1ccc(F)cc1)N1CCOCC1` (centres unmarked) here?
A: -5.89%

Q: `CCC(Oc1ccccc1)C(=O)Nc1ccccc1OC` (centres unmarked) was tested. Which “hERG current change (%, negative = inhibition) at 10uM” value did it give?
A: -1.4%

Q: `Cc1nn(CC(=O)NCCCN2CCN(Cc3ccccc3)CC2)c(=O)c2cc(-c3ccccc3)nn12` was tested. Which “hERG current change (%, negative = inhibition) at 10uM” value did it give?
A: -70.1%

Q: For `Cc1ccc2c(c1)N(CC(=O)NC1CCCC1)C(=O)CO2`, which “hERG current change (%, negative = inhibition) at 10uM” value is on record?
A: 8.92%

Q: With `CCC(C)(C)NC(=O)Cc1ccc(C)cc1` as the compound, how does the “hERG current change (%, negative = inhibition) at 10uM” value read?
A: -1.94%

Q: `COc1ccc2[nH]c(=O)c(CN(Cc3cccnc3)C(=O)Nc3ccccc3)cc2c1` was tested. Which “hERG current change (%, negative = inhibition) at 10uM” value did it give?
A: -54.6%

Q: `CCOC(=O)c1[nH]c2ccc(C(=O)OC)cc2c1C(=O)OCC` was tested. Which “hERG current change (%, negative = inhibition) at 10uM” value did it give?
A: 1.84%

Q: How did the “hERG current change (%, negative = inhibition) at 10uM” value turn out when `O=C(CC1C(=O)NCCN1Cc1cccc(Oc2ccccc2)c1)NCC1CCOCC1` (centres unmarked) was run?
A: 2.62%

Q: `COc1ccc(OCC(=O)NNC(=O)CCc2ccccc2)cc1` was tested. Which “hERG current change (%, negative = inhibition) at 10uM” value did it give?
A: 14.2%

Q: `C=CCOc1ccc(/C=C2\SC(=S)N(N3CCOCC3)C2=O)cc1` was tested. Which “hERG current change (%, negative = inhibition) at 10uM” value did it give?
A: 10.7%

Q: Which “hERG current change (%, negative = inhibition) at 10uM” value does the source give for `C=CCOc1cccc(C(=O)N2CCCC(CNS(=O)(=O)c3cccs3)C2)c1` (centres unmarked) here?
A: -5.84%

Q: With `CCS(=O)(=O)NCCCc1ccccc1` as the compound, how does the “hERG current change (%, negative = inhibition) at 10uM” value read?
A: -2.89%

Q: How did the “hERG current change (%, negative = inhibition) at 10uM” value turn out when `COc1ccc(N(CC(=O)Nc2cccc(C)c2)S(=O)(=O)c2ccc(C)cc2)cc1OC` was run?
A: -4.53%

Q: `Cc1ccc(C)c(NC(=S)NCc2ccccc2)c1` was tested. Which “hERG current change (%, negative = inhibition) at 10uM” value did it give?
A: 13.8%

Q: With `NS(=O)(=O)c1ccc(CCNC(=O)C(=O)c2cn(CC(=O)N3CCCC3)c3ccccc23)cc1` as the compound, how does the “hERG current change (%, negative = inhibition) at 10uM” value read?
A: 14.3%

Q: `COc1cccc2cc(C(=O)NC(C)C3CCCO3)c(=O)oc12` (centres unmarked) was tested. Which “hERG current change (%, negative = inhibition) at 10uM” value did it give?
A: -5.01%

Q: Which “hERG current change (%, negative = inhibition) at 10uM” value does the source give for `N#CC1(c2ccc(NC(=O)c3ccccc3)cc2)CCCC1` here?
A: -5.85%

Q: How did the “hERG current change (%, negative = inhibition) at 10uM” value turn out when `CC(C)C1CC(CCNCc2ccc(N(C)C)cc2)(c2ccccc2)CCO1` (centres unmarked) was run?
A: -24.6%

Q: With `CC(C)(C)c1nc2ccc([N+](=O)[O-])cc2[nH]1` as the compound, how does the “hERG current change (%, negative = inhibition) at 10uM” value read?
A: -77.7%

Q: `COc1ccc(OC)c(C(=O)c2c(C)oc3cc([N+](=O)[O-])c(O)c([N+](=O)[O-])c23)c1` was tested. Which “hERG current change (%, negative = inhibition) at 10uM” value did it give?
A: 13.3%

Q: How did the “hERG current change (%, negative = inhibition) at 10uM” value turn out when `O=C(COC(=O)c1cccc(Cl)c1)Nc1ccc2[nH]c(=O)[nH]c2c1` was run?
A: 6.53%

Q: Which “hERG current change (%, negative = inhibition) at 10uM” value does the source give for `CC(C)(C)NCC(O)c1cc(Cl)c(N)c(Cl)c1.Cl` (centres unmarked) here?
A: -2.17%

Q: How did the “hERG current change (%, negative = inhibition) at 10uM” value turn out when `O=C(NCCN1CCOCC1)c1cc2ccccc2oc1=O` was run?
A: -1.87%

Q: Which “hERG current change (%, negative = inhibition) at 10uM” value does the source give for `Cc1ccc(S(=O)(=O)N2CCN(C(=O)COC(=O)C3CC3C)CC2)c(C)c1` (centres unmarked) here?
A: -18.9%
